Values joined by “and” are separate entries in the source; they are usually repeats but may differ in a detail not shown here. Equal entries are not always repeated.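 Assay format: 96-well plates, 48-hour exposure. At the GI50, growth is halved. At the TGI there is no net growth.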
The compounds below were run on NCI-H322M lung (assay: growth of human tumour cells (NCI), 48 h).

Structure (SMILES)	TGI	GI50
CC(C)c1c(O[Si](C(C)C)(C(C)C)C(C)C)cc2c(c1O)CC[C@H]1C(C)(C)CCC[C@]21C	> 100 µM	–
COc1ccc(/C=C\c2cc(OC)c(OC)c(OC)c2)c(NS(=O)(=O)c2ccc(F)cc2)c1O	> 100 µM	0.2 µM
Nc1cc(N)c2nc(NCCc3ccc(Cl)c(Cl)c3)cnc2c1	32.5 µM	17.3 µM
O=C(CN1CCN(C(=O)c2ccco2)CC1)Nc1ccc(Cl)cc1C(=O)c1ccccc1Cl	26.5 µM	12.5 µM
O=C(Nc1cccc(-n2ccc3c(NC(=O)c4ccccc4)nccc32)c1)c1ccc(Cl)c(C(F)(F)F)c1	11.3 µM and > 100 µM	–
CO/C(=C1/NC(=O)C(Cc2ccc(O)c(Br)c2)N(C)C(=O)C(C)NC(=O)CCC/C=C(\C)CCC(C)OC1=O)c1ccccc1 (centres undefined)	43.7 µM	0.134 µM
CCCCOC(=O)c1c(C)[nH]c(/C=C2\N=C(c3ccc[nH]3)C=C2OC)c1C	4.65 µM	0.502 µM
COc1cc2c(cc1[N+](=O)[O-])C(=O)C(Br)(Br)CCC2	30.1 µM	–
Cc1c(C(=O)c2ccccc2)[n+](=O)c2cc(F)c(F)cc2n1[O-]	7.2 µM	1.16 µM
CCN(CC)CCSc1c(C(C)=O)c(=O)n(-c2ccccc2)c(=S)n1-c1ccccc1	> 100 µM	–
C=CC(=O)N1CCC[C@@H](n2nc(-c3ccc(Oc4ccccc4)cc3)c3c(N)ncnc32)C1	> 10 µM	0.253 µM
COc1ncc(-c2ccc3nccc(C#CCCCCC(=O)NO)c3c2)cc1NS(=O)(=O)c1ccc(F)cc1F	7.08 µM	< 0.041 µM
COC(=O)C(C(=O)C(=O)Nc1ccccc1C)c1nc2ccc([N+](=O)[O-])cc2[nH]c1=O (centres undefined)	> 100 µM	–
NC(CSCSCC(N)C(=O)O)C(=O)O (centres undefined)	> 225 µM	–
CC1[C@@H]2CC=C3[C@H]4CCC5Cc6nc7c(nc6C[C@@]5(C)C4CC(=O)[C@]32CO[C@]12OC(C)(C)CC2O)CC1CC[C@@H]2C3=C[C@H]4O[C@@]5(O[C@@](C)(CO)C[C@@H]5O)C(C)[C@@]4(O)[C@]3(C)[C@@H](O)CC2[C@]1(C)C7 (some centres undefined)	0.682 µM	0.0903 µM
COc1ccc2c(ccc3c(C(=O)NCCCN(C)CCCNC(=O)c4cn(C)c5c4ccc4cc(OC)ccc45)cn(C)c32)c1	9.61 µM	–
COc1ccc(/C=C/C(=O)/C=C(O)/C=C/c2ccc(OC)c(OC)c2)cc1OC	> 100 µM	9.23 µM
O=C(CCCn1ccnc1[N+](=O)[O-])NCCn1cnc([N+](=O)[O-])n1	> 100 µM	–
O=c1oc2ccccc2n1P(=O)(Oc1ccc(Cl)cc1)n1c(=O)oc2ccccc21	> 100 µM	–
CC(=O)Nc1cc2c3c(cccc3c1)-c1ccccc1-2	55.4 µM	16.8 µM
CC1CC(=O)Nc2ccccc2N1C(=O)C1CC1 (centres undefined)	> 100 µM	–
CCOc1ccc2c(c1)C(=O)c1c-2n(CCCN=[N+]=[N-])c(=O)c2cc([N+](=O)[O-])ccc12	> 100 µM	18 µM
Cn1c(=S)[nH]c(N)c(Cc2ccccc2)c1=O	> 100 µM	–
O=C(N/N=C/c1ccncc1)c1ccc(F)cc1	> 40 µM	> 40 µM

Structure (SMILES)	TGI	GI50
COc1nc(NC2OC(CO)C(O)C(O)C2O)c(N)c(=O)[nH]1 (centres undefined)	> 100 µM	–
COC(=O)c1c2c(cc3c1CC1(C3)Cc3cc4c(c(C(=O)OC)c3C1)CCC4)CCC2	> 100 µM	–
Cc1c(Cl)c(C)c(Cl)c(O)c1Cl	> 100 µM	–
NC1(C(=O)N[C@@H](CCO)c2ccc(Cl)cc2)CCN(c2ncnc3[nH]ccc23)CC1	> 100 µM	> 2.1 µM and 25.2 µM
COc1cc(C2CC(c3cccc(Nc4ccnc5cc(Cl)ccc45)c3)=NN2c2ccccc2)cc(OC)c1OC (centres undefined)	> 100 µM	53.3 µM
C#CCNC(=O)CC[C@@H](C)[C@H]1CC[C@H]2[C@@H]3CC[C@@H]4CC(=O)CC[C@]4(C)[C@H]3CC[C@]12C	74.5 µM	21.9 µM
CN(C)NC1=NS(=O)(=O)c2cc3c(=O)n(C)[nH]c3cc2S1	> 10 µM	–
C=C(C)COc1cc(NC(=S)OC(C)C)ccc1Cl	29.9 µM	–
OCC1OC(n2cnc3c(Cl)nc(Nc4ccc(Cl)c(Cl)c4)nc32)CC1O (centres undefined)	39.7 µM	–
c1ccc(CC(Nc2cccnc2)c2ccccc2)cc1 (centres undefined)	> 100 µM	–
Cc1cc(N=Cc2c(CO)cnc(C)c2O)c(N=Cc2c(CO)cnc(C)c2O)cc1C	> 100 µM	–
COC(=O)c1c2c(c(C)[n+]([O-])c1C)C(=O)C(NCc1ccc(O)cc1)=CC2=O	2.87 µM	1.52 µM
Cc1cc(Cl)cc2c1NC(=O)C2(O)C(C(=O)c1ccccc1)c1ccccc1 (centres undefined)	> 100 µM	–
O=C(NN1C(=O)CSC1c1c(Cl)cccc1Cl)C(O)c1ccccc1 (centres undefined)	> 100 µM	65.9 µM
O=C(OCC(OC(=O)c1ccccc1)C1CC(C2(O)CCCCC2)C(=O)O1)c1ccccc1 (centres undefined)	> 25 µM	–
O=C(O)c1ccc(/C=N/N=C2c3ccccc3-c3ccccc32)cc1	> 100 µM	–
C[C@]12CC[C@@H]3c4ccc(OC(=O)N(CCCl)CCCl)cc4CC[C@H]3[C@@H]1CC[C@@H]2OP(=O)(O)O	> 100 µM	50.2 µM
COc1ccc(-c2cc(=O)c3cc(O)ccc3o2)c(OC)c1OC	> 100 µM	–
CCCCCCCCCC[C@H](O)[C@H]1CC[C@@H]([C@@H](O)CC[C@H](O)[C@@H]2CCC(CCCCCCC[C@@H](O)CC3=C[C@H](C)OC3=O)O2)O1 (some centres undefined)	7.95 µM and 23.7 µM	8.3 µM
CC1=CC[C@@H](C(C)(C)O)C[C@@H]1O	> 5000 µM	–
Cn1c(=O)cc(Nc2ccc(N)cc2)[nH]c1=O	> 100 µM	–
COC1C(=O)CCC2(CO2)C1(O)C1(C)OC1CC=C(C)C (centres undefined)	> 100 µM	–
O=C(O)CCC1c2[nH]c3ccccc3c2CCN1Cc1ccccc1 (centres undefined)	> 100 µM	–
COc1cc(C(c2ccc3c(c2)OCO3)C2SCCCS2)cc(OC)c1OC (centres undefined)	> 100 µM	–

Structure (SMILES)	TGI	GI50
COCCCNc1c2ccccc2nc2ccccc12	29.3 µM	–
CC(=O)N1N=C(c2ccc(C)cc2)CC1c1cn(-c2ccccc2)nc1-c1cccc(Nc2ccnc3cc(Cl)ccc23)c1 (centres undefined)	> 100 µM	> 100 µM
Fc1ccc(Nc2nc3nonc3nc2Nc2ccc(I)cc2)cc1	11.3 µM	0.262 µM
Nc1ccc(C2SCC(=O)N2NS(=O)(=O)c2cccc(C(=O)O)c2)cc1 (centres undefined)	> 100 µM	–
CC#CC#C/C=C1\C=CC2(OC=CC2O)O1 (centres undefined)	> 23.3 µM	–
Nc1ncnc2c1ccn2-c1cccc(NC(=O)c2ccc(N3CCOCC3)c(C(F)(F)F)c2)c1	9.6 µM	3.01 µM
O=C(/C=C/c1cccc(Br)c1)N1CCN(CCOC(c2ccccc2)c2ccccc2)CC1	> 100 µM	–
CC(N)C(C)c1ccccc1 (centres undefined)	> 100 µM	–
CC[C@@H](C)/C=C(C)/C=C/C(=O)c1c(O)c(-c2ccc(O)cc2)cn(OC2CC(=O)CCC(C)OC(=O)CC2O)c1=O (some centres undefined)	9.22 µM	0.265 µM
CC1C(O)=C(O)c2ccccc2N1O (centres undefined)	> 100 µM	–
C#CCn1c(=O)ccn(/C(=C/C(=O)OCC)C(=O)OCC)c1=O	> 100 µM	–
CN1C2(c3ccccc3)C(C(=O)c3ccccc3)=C(C(=O)c3ccccc3)C1(c1ccccc1)c1c(-c3ccccc3)sc(-c3ccccc3)c12	> 100 µM	–
CCCCCCCCCCCCCCCC(=O)OC1C(O)C(O)C(O)C(O)C12CO2 (centres undefined)	> 100 µM	–
CCOC(=O)C(=O)C(C#N)c1ccc(Cl)cc1 (centres undefined)	> 100 µM	–
CN(C)CCCCNc1ccc(NCCCCN(C)C)c2c1C(=O)c1c(O)ccc(O)c1C2=O	2.9 µM	1.54 µM
CC1(C)[C@H]2Cc3cc4nc5ccccn5c4cc3[C@@H]1C2	36 µM	–
COc1cc(C)[nH]c(=O)c1CNC(=O)c1c(C)n([C@H](C)C2CCN(CC(F)(F)F)CC2)c2ccccc12	> 100 µM	71.1 µM
CC(=O)N[C@@H](Cc1ccc(OP(=O)(O)O)cc1)C(=O)N[C@H]1CCC(=O)N2CCC[C@@H](C(=O)NC3CCc4ccccc43)N2C1=O (some centres undefined)	> 25 µM	> 25 µM
COc1ccc2nc3cc(Cl)ccc3c(NCCCCCC(=O)NC(COc3ccc4ccc5cccnc5c4n3)COc3ccc4ccc5cccnc5c4n3)c2c1	35 µM	–
CC(C)C(/C=C/c1ccc(Cl)cc1)=N\NC(=O)N/N=C(/C=C/c1ccc(Cl)cc1)C(C)C	95.9 µM	–
CN1CCc2c(sc3ncn(Nc4ccc(F)cc4)c(=N)c23)C1	> 100 µM	–
NC(=O)c1csc(-c2ccc(CO)o2)n1	> 100 µM	–
CC1OC(CO)(n2cnc3c(N)ncnc32)C(O)C1O (centres undefined)	> 100 µM	–
CCN(CC)CC(O)c1cc(-c2ccc(Cl)cc2)nc2c(C)c(Cl)ccc12 (centres undefined)	3.05 µM	1.64 µM

Structure (SMILES)	TGI	GI50
OC(Cc1cc(CC(O)(C(F)(F)F)C(F)(F)F)nc(CC(O)(C(F)(F)F)C(F)(F)F)c1)(C(F)(F)F)C(F)(F)F	> 10 µM	–
C=C(C)[C@H]1CC(=O)[C@@]2(C)C[C@H]3O[C@]3(C)CC/C=C(\C)CC[C@H]12	> 100 µM	–
CSC1=Nc2ccccc2N=C(c2ccccc2)C1	> 100 µM	–
NS(=O)(=O)c1ccc(NC(=O)c2ccc3nc4ccccc4c(Nc4ccc(S(N)(=O)=O)cc4)c3c2)cc1	> 100 µM	–
C=C1CC[C@@H]2[C@](C)(COC(=O)CCC(=O)O)CCC[C@@]2(C)[C@@H]1CCC1=CC(=O)OC1	> 100 µM	–
C=C1CN2CCc3c([nH]c4ccccc34)C2CC1CC(=O)N(C)C (centres undefined)	> 309 µM	–
COC(=O)C1=CC(=O)[C@@H]2CCCC[C@H]12	> 100 µM	–
CC(C)C(=O)/C=C/c1c(Cl)cccc1Cl	17.4 µM	–
O=C1OC(c2ccccc2Br)=N/C1=C/c1ccccc1	> 100 µM	–
CC(C)=CCc1cc(/C=C/C(=O)O)cc(CC=C(C)C)c1O	> 100 µM	–
Cc1c(C#N)c2nc3ccccc3n2c(=O)/c1=C/Nc1ccc(Cl)cc1	> 100 µM	–
Cc1cc(C)c2c(c1)N(C)c1ncnc(-n3cnc4cc(C)ccc43)c1CC2C (centres undefined)	34.9 µM	6.35 µM
CN(C)C1CN(C(=O)c2cc(-c3ccc4ncnc(N5CCc6cc(F)c(Cl)cc65)c4c3)cnc2N)C1	> 100 µM	0.686 µM
CC(C)C1=CC2=C(C(=O)C1=O)C13CCCC(C)(C)C1CC2OC3=O (centres undefined)	> 100 µM	–
c1ccc(/C(=N/Nc2ccccn2)c2cccnn2)cc1	> 100 µM	–
CC1CCc2c(sc3ncnc(N/N=C/c4ccc(Cl)cc4)c23)C1 (centres undefined)	> 100 µM	–
c1ccc2c(c1)-c1ccccc1C2NC1=NCCO1	> 100 µM	–
O=C(CCN1CCCN(c2cnc3ccccc3n2)CC1)c1csc2ccccc12	> 100 µM	59.6 µM
O=C(CC(=O)N1N=C(N(c2ccccc2)c2ccccc2)CC1c1ccccc1)Nc1cccc(Cl)c1 (centres undefined)	> 100 µM	–
O[C@@]12Cc3c([nH]c4ccccc34)[C@@H]3Oc4c(-c5ccccc5)ccc5c4[C@@]31CCN(CC1CC1)[C@@H]2C5	3.71 µM	–
COc1ccc(-c2c3c(nc4nc(SCC(=O)c5ccc(Br)cc5)nc(N)c24)CCCC3)cc1OC	> 100 µM	–

From PubChem BioAssay (NCI)
